# Experimental data as given in ChEMBL document CHEMBL4888484, “Replenishing the malaria drug discovery pipeline: Screening and hit evaluation of the MMV Hit Generation Library 1 (HGL1) against asexual blood stage Plasmodium falciparum ,using a nano luciferase reporter read-out” (2022).
# The campaign covered roughly 150,000 compounds. About 540 (0.36%) showed an effect of 50% or more. Some of the results follow.
# Tested on: Plasmodium falciparum
# Assay: Primary screen in NF54 nanoGlo assay, in single point, at 2uM, 72h; a lower Z score goes with more inhibition
# Format: functional, Erythrocyte
# Conditions: timepoint 72 hour
SMILES,% Inhibition [%],Z score
O=C(O)c1ccc(NCc2c[nH]nc2-c2cccs2)cc1,-14,2.22
Cc1cc(C(=O)N(Cc2cccn2C)C2CC2)c(C)o1,-7,1.4
COc1ccc(NC(=O)COc2cccc3c2[C@@H](O)CC(C)(C)O3)cc1,5,-0.75
C=CCNC(=O)C[C@@H]1CCN(C(=O)NC(C)C)C[C@@H]1CC,5,-0.75
O=C(O)c1cccc(CN2CCC[C@H](n3ccnn3)C2)c1Cl,-2,0.44
Nc1nnc(CCNC(=O)c2cccc(Cl)c2)s1,6,-0.81
COc1cccc(-c2ccc(N3CCCN(C(=O)CN(Cc4ccccc4)C(=O)c4ccc5c(c4)OCO5)CC3)nn2)c1,19,-1.85
O=C(N[C@H]1CO[C@H]2[C@@H]1OC[C@@H]2n1nnnc1-c1ccc2c(c1)OCO2)C1CCCCC1,-3,0.4
COc1ccc(N(C)S(=O)(=O)c2ccc3c(c2)C(=O)Nc2cc(Cl)ccc2O3)cc1,-10,1.38
CC(=O)Nc1cccc(NC(=O)Cn2c(=O)n(CCc3cccs3)c(=O)c3ccccc32)c1,36,-0.77
CCN(CCCC(=O)c1ccc(F)cc1)CCc1ccccc1,33,-4.3
C[C@H](NC(=O)Nc1ccnc2ccnn12)C(F)(F)F,-9,1.18
CN(Cc1cccc(C#N)c1)Cn1cc(Br)cn1,-6,0.93
COCc1ncc(-c2cn([C@@H](C)Cc3ccncc3)nn2)cn1,3,-0.43
O=C(Nc1ccc(N2CCCCC2)cc1)c1ccccc1NCc1cccnc1,-13,1.45
CC(C)c1csc(C(=O)N2CCn3nc(CO)cc3C2)n1,-6,1.15
CN(Cc1cc2cc(F)ccc2[nH]1)Cc1ccnn1C,-9,1.38
N#C[C@@]1(c2ccccc2OCc2ccccc2)CCC(=O)N1Cc1ccccc1,-10,1.37
COc1cc(NS(=O)(=O)c2ccc(C)s2)ccc1N1CCCCC1=O,-15,2.28
Cc1ccc(C)c(C(=O)COc2ccc(C)cc2C(=O)Nc2ccncc2)c1,-7,1.25
CC[C@H]1COCCN1C(=O)Nc1ccc(Oc2ccccc2)cc1,-7,1.26

SMILES,% Inhibition [%],Z score
Cc1cncc(C(=O)OCCc2c(C)n[nH]c2C)c1,-20,1.71
O=C(NCCc1ccccc1)N1CCC(CO)(C[C@H]2CCCCO2)CC1,-35,3.09
Cc1nnsc1C(=O)N1C[C@@H](CN2C[C@@H](C)O[C@@H](C)C2)[C@@H](CO)C1,0,0.06
Cc1ccc(Br)cc1C(N)=O,-2,0.28
O=C1NC2(CCCC2)C(=O)N1CC(=O)N1CCC[C@H]1c1ccc2c(c1)OCCCO2,-8,1.03
CCOC(=O)CCC(=O)N[C@H]1Cc2ccccc2O[C@@H]1C(F)(F)F,7,-0.84
Cc1sc2ncnc(NC[C@H]3CCCN3S(C)(=O)=O)c2c1C,-12,1.38
Cc1cc(=O)[nH]c(NC2CCCCC2)n1,2,-0.3
Cc1ncsc1CCS(=O)(=O)N1C[C@H](C)Oc2cc(F)ccc21,-12,1.05
COc1ccc(CCNC(=O)N2CC(c3nc(C4CC4)no3)C2)cc1,-11,2.18
Cc1nocc1NC(=O)N(C)C1(C(F)(F)F)CC1,9,-1.02
COc1cc(CN(C)Cc2nc(C)c[nH]2)ccc1OC[C@@H](O)CN1CCOCC1,-7,0.91
C[C@@H](NC(=O)N1CCN(C(=O)c2cccc(F)c2)CC1)c1cccc(O)c1,0,-0.02
O=C1C2CCCN2C(=O)N1C1CCN(c2ccc(F)c(Cl)c2)C1 (centres undefined),-4,0.55
O=C(NCc1ccncc1)c1cccc(Nc2c(Oc3cccc(Cl)c3)cnn(-c3ccccc3)c2=O)c1,-8,0.96
CCn1nccc1C(=O)N1CCC(N2C[C@H](Oc3ccccc3)[C@@H]2c2ccncc2)CC1,-10,1.25
FC(F)(F)c1ccnc(NOCc2ccccc2)n1,-25,2.29
CN(Cc1cccnc1)Cc1cnc(NS(=O)(=O)c2ccccc2)nc1,2,-0.32
C[C@H](O)CN1CCC(n2nccc2NC(=O)c2ccc3c(c2)OCO3)CC1,-4,0.5
COc1ccc(-c2csc(CCNC(=O)c3cc(OC)c(OC)c(OC)c3)n2)cc1,2,-0.23
Cc1cc(=O)cc(C(=O)N[C@@H]2C[C@H]3OCC[C@@H]23)[nH]1,-7,1.24
